Read counts are not given, so values of variants with three or more changes are uncertain.
B1: LINE1-mini (parent)
chain: GGCAGAGCUCAACACAGCGUGGCAAAGUGGCUGUGGCUAGACUGCC

Variants of: B1
Assay: self-cleavage, relative activity (ratio to wild type); higher = more cleavage; in vitro, sequencing; the parent is a self-cleaving ribozyme
Work on GGCAGAGCUCAACACAGCGUUGCAAAGUGGCUCCGGCUAGACUGCC [G21U G33C U34C] yielded a self-cleavage of 0.02.
Work on GGCAGAGCUCAACACAGCGUUGCAAAGUGGCUUUGGAUAGAAUGCU [G21U G33U C37A C42A C46U] yielded a self-cleavage of 0.06.
In the case of GGCAGAGCUCAACACAGCGUUGCAAAGUGGCUUUGGCUAGACUACC [G21U G33U G44A], the self-cleavage is reported as 0.03.
Variant GGCAGAGCUCAACACAGCGUUGCAAAGUGGCUUUGGCCAGACUGCC [G21U G33U U38C] has a self-cleavage of 0.02.
With GGCAGAGCUCAACACAGCGUUGCAAAGUGGCUUUGGCUAGACAGGC [G21U G33U U43A C45G] the self-cleavage was 0.03.
For GGCAGAGCUCAACACAGCGUUGCAAAGUGGCUGUUGCUAGACUGUC [G21U G35U C45U], the self-cleavage was 0.21.
GGCAGAGCUCAACACAGCGUUGCAAAGUGGCUGUGACUAUACUGCC [G21U G36A G40U] showed a self-cleavage of 0.42.
GGCAGAGCUCAACACAGCGUUGCAAAGUGGCUGUGCCUGGACUGCC [G21U G36C A39G] showed a self-cleavage of 0.05.
Variant GGCAGAGCUCAACACAGCGUUGCAAAGUGGCUGUGUCUAGACUGGC [G21U G36U C45G] has a self-cleavage of 0.03.
Variant GGCAGAGCUCAACACAGCGUUGCAAAGAGGUUGUGGCUAGACUGCC [G21U U28A C31U] has a self-cleavage of 0.46.
GGCAGAGCUCAACACAGCGUUGCAAAGAGGCUGUGGCCAGACUGGC [G21U U28A U38C C45G] gave a self-cleavage of 0.02.
For GGCAGAGCUCAACACAGCGUUGCAAAGCGGCUGUGACUAGACUGCC [G21U U28C G36A], the self-cleavage was 0.06.
Work on GGCAGAGCUCAACACAGCGUUGCAAAGUGGCCGUGGAUAGACUGCC [G21U U32C C37A] yielded a self-cleavage of 0.04.
Work on GGCAGAGCUCAACACAGCGUUGCAAAGUGGCCGUGGCUACACUGCC [G21U U32C G40C] yielded a self-cleavage of 0.02.
For GGCAGAGCUCAACACAGCGUUGCAAAGUGGCGGUGGGUAGACUGUC [G21U U32G C37G C45U], the self-cleavage was 0.1.
Variant GGCAGAGCUCAACACAGCGUUGCAAAGUGGCGGUGGCUAGACUGCU [G21U U32G C46U] has a self-cleavage of 0.12.
GGCAGAGCUCAACACAGCGUUGCAAAGUGGCUGGUGCUAGACUGAC [G21U U34G G35U C45A] showed a self-cleavage of 0.07.
Work on GGCAGAGCUCAACACAGCGUGACCAAGUGGCUGUGGCUCGACUGCC [G22A A24C A39C] yielded a self-cleavage of 0.02.
In the case of GGCAGAGCUCAACACAGCGUGACCAAGUGGCUGUGGUUAGACUGCC [G22A A24C C37U], the self-cleavage is reported as 0.03.
For GGCAGAGCUCAACACAGCGUGACUAAGUGGCUGUGGCUAUUCUGCC [G22A A24U G40U A41U], the self-cleavage was 0.05.
GGCAGAGCUCAACACAGCGUGACACAGUGGCUGUGGCUAGAAUGCC [G22A A25C C42A] showed a self-cleavage of 0.08.
With GGCAGAGCUCAACACAGCGUGACACAGUUGCUGUGGCUAGACUGCC [G22A A25C G29U] the self-cleavage was 0.31.
GGCAGAGCUCAACACAGCGUGACAGAGUGGCUGUGGCUAUACUGCC [G22A A25G G40U] gave a self-cleavage of 0.28.
With GGCAGAGCUCAACACAGCGUGACAUAGUCGCUGUGGCUAGACUGCC [G22A A25U G29C] the self-cleavage was 0.12.
GGCAGAGCUCAACACAGCGUGACAACGUCGCUGUCGCUAGACUGCC [G22A A26C G29C G35C] gave a self-cleavage of 0.06.
With GGCAGAGCUCAACACAGCGUGACAAAGUGGCUGUGGCUUGACUGUC [G22A A39U C45U] the self-cleavage was 1.87.
GGCAGAGCUCAACACAGCGUGAAUAAGUGGCUGUGGCUAGUCUGCC [G22A C23A A24U A41U] gave a self-cleavage of 0.86.
Variant GGCAGAGCUCAACACAGCGUGAAAAAGUGGAUGUGGCUAGACUGCC [G22A C23A C31A] has a self-cleavage of 0.16.
Work on GGCAGAGCUCAACACAGCGUGAAAAAGUGGCUAUGGCUAGACAGCC [G22A C23A G33A U43A] yielded a self-cleavage of 0.05.
Work on GGCAGAGCUCAACACAGCGUGAAAAAGUGGCUGUGACUAGACUGCC [G22A C23A G36A] yielded a self-cleavage of 0.27.
With GGCAGAGCUCAACACAGCGUGAAAAAGGGCCUGUGGGUAGGCUGCC [G22A C23A U28G G30C C37G A41G] the self-cleavage was 0.
GGCAGAGCUCAACACAGCGUGAUAAAGUGAAUGUGGCUAGACUGCC [G22A C23U G30A C31A] showed a self-cleavage of 0.9.
For GGCAGAGCUCAACACAGCGUGACAAAGUGGGUGUGGCUAGCUUGCC [G22A C31G A41C C42U], the self-cleavage was 0.02.
Variant GGCAGAGCUCAACACAGCGUGACAAAGUGGGAGUGCCUAGGCUGCC [G22A C31G U32A G36C A41G] has a self-cleavage of 0.07.
With GGCAGAGCUCAACACAGCGUGACAAAGUGGCUGUGGAUACACUGCC [G22A C37A G40C] the self-cleavage was 0.01.
Variant GGCAGAGCUCAACACAGCGUGACAAAGUGGCUGUGGGUACACUGCC [G22A C37G G40C] has a self-cleavage of 0.
Work on GGCAGAGCUCAACACAGCGUGACAAAUUGGCUGUGGCUAGCCUGCC [G22A G27U A41C] yielded a self-cleavage of 0.02.
With GGCAGAGCUCAACACAGCGUGACAAAUGUGCUGUGGCUAGACUGCC [G22A G27U U28G G29U] the self-cleavage was 0.47.
With GGCAGAGCUCAACACAGCGUGACAAAGUCACUGCGGCUAGACUGCC [G22A G29C G30A U34C] the self-cleavage was 0.09.
With GGCAGAGCUCAACACAGCGUGACAAAGUUGCUGUGGCUAGACUACC [G22A G29U G44A] the self-cleavage was 0.17.
GGCAGAGCUCAACACAGCGUGACAAAGUUGCUGGGGCUAGACUGCU [G22A G29U U34G C46U] gave a self-cleavage of 0.32.
GGCAGAGCUCAACACAGCGUGACAAAGUGACUGUGGCUAGACUGCA [G22A G30A C46A] gave a self-cleavage of 0.94.
GGCAGAGCUCAACACAGCGUGACAAAGUGACUCGGGCUAGACUGCC [G22A G30A G33C U34G] showed a self-cleavage of 0.03.
GGCAGAGCUCAACACAGCGUGACAAAGUGACUGUAGCUAGACUGCU [G22A G30A G35A C46U] showed a self-cleavage of 0.11.
With GGCAGAGCUCAACACAGCGUGACAAAGUGACUGUGGCUAGACCGCC [G22A G30A U43C] the self-cleavage was 0.24.
GGCAGAGCUCAACACAGCGUGACAAAGUGGCUCUGCCUAGACUGCC [G22A G33C G36C] showed a self-cleavage of 0.05.
In the case of GGCAGAGCUCAACACAGCGUGACAAAGUGGCUGUUGGUAGACUGCC [G22A G35U C37G], the self-cleavage is reported as 0.05.
With GGCAGAGCUCAACACAGCGUGACAAAGUGGCUGUGGCUAAGGUGCC [G22A G40A A41G C42G] the self-cleavage was 0.01.
Variant GGCAGAGCUCAACACAGCGUGACAAAGAGGCUGAGGCUAGUCUGCG [G22A U28A U34A A41U C46G] has a self-cleavage of 0.03.
GGCAGAGCUCAACACAGCGUGACAAAGAGGCUGUGGCCAGACUGCC [G22A U28A U38C] showed a self-cleavage of 0.57.
With GGCAGAGCUCAACACAGCGUGACAAAGCGGCUGCGGCUAGACUGCU [G22A U28C U34C C46U] the self-cleavage was 0.45.
Variant GGCAGAGCUCAACACAGCGUGACAAAGUGGCUGAGGCGUAACUCCC [G22A U34A U38G A39U G40A G44C] has a self-cleavage of 0.04.
Variant GGCAGAGCUCAACACAGCGUGACAAAGUGGCUGUGGCCGGACUUCC [G22A U38C A39G G44U] has a self-cleavage of 0.03.
With GGCAGAGCUCAACACAGCGUGCCCAAGUGGCUGUCGCUAGACGGCC [G22C A24C G35C U43G] the self-cleavage was 0.02.
With GGCAGAGCUCAACACAGCGUGCCAACGUGGCUGUGGGUAGUCUGCC [G22C A26C C37G A41U] the self-cleavage was 0.02.
GGCAGAGCUCAACACAGCGUGCCAAGGUGGCUGUGGCUAUACUGCC [G22C A26G G40U] showed a self-cleavage of 0.03.

From the RNAGym collection of RNA variant scans (doi:10.7554/elife.90254)
